The source of these data is paper PMC3468502.

Amino acid sequences for entries named in this document (tags omitted).
UniProt P23769: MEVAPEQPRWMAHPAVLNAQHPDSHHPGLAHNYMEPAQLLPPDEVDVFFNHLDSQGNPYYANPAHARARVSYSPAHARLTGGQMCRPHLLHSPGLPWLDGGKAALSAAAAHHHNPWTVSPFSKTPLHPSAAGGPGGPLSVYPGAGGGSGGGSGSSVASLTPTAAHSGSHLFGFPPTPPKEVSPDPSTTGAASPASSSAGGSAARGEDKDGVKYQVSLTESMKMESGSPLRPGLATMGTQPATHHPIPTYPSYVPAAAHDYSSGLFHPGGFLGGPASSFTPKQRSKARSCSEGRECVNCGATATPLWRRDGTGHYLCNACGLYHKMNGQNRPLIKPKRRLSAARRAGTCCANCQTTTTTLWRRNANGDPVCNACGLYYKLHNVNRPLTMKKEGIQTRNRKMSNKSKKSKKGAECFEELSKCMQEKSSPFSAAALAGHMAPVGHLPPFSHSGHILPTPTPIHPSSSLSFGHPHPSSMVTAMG
UniProt P23511: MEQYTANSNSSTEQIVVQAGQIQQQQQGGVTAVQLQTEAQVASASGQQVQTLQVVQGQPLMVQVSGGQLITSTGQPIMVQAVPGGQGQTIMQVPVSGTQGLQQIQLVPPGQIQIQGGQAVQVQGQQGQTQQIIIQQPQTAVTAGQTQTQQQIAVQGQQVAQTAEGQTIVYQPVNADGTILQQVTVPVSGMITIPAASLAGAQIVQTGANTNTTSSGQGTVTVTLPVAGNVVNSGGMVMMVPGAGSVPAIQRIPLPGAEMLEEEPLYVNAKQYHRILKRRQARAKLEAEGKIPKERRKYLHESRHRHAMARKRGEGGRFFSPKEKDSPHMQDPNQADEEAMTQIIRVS
UniProt P15976: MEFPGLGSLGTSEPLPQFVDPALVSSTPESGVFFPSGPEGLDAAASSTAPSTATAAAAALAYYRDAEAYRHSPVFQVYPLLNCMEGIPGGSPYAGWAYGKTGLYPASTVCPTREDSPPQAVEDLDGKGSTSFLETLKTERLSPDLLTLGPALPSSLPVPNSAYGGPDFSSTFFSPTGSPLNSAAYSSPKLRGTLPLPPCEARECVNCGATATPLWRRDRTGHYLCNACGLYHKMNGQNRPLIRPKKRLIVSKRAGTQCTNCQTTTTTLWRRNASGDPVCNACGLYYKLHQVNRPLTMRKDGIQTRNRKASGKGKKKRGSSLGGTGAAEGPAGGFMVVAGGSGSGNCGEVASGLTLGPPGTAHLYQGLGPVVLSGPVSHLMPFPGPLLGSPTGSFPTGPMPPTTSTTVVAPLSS
UniProt Q9H165: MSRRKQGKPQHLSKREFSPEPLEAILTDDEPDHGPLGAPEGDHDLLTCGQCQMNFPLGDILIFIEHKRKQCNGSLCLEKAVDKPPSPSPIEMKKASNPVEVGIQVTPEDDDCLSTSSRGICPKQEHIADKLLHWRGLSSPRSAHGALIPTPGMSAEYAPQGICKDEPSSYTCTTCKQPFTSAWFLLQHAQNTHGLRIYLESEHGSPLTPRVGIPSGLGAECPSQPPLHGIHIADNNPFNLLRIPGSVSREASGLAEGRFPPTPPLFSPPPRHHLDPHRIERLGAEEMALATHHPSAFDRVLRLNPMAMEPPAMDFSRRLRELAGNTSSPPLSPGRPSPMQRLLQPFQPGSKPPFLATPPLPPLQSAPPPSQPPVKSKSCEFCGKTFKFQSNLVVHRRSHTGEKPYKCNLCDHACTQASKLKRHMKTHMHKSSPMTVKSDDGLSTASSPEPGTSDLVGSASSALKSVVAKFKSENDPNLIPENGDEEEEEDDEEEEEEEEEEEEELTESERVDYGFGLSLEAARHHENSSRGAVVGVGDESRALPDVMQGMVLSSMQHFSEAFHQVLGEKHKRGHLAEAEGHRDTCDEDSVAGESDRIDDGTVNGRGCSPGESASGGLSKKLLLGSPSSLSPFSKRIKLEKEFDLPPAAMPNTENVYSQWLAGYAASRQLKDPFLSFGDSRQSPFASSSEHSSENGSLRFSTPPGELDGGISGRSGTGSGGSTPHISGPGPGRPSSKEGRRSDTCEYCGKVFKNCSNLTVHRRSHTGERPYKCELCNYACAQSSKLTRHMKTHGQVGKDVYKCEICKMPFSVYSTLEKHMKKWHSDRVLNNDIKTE

These are yes or no findings as the source states them, for the method shown. For some of these results: Binding seen in cells or lysates may run through a third protein. Some binding calls cover weakened binding; strength is not graded here. For some of these results: Sequences can lack the tags named with a protein.

The target in assay [1] is tagged GATA-2 expressed from a plasmid transfected into K562 cells (UniProt P23769). Nature of the assay: co-IP; in vivo co-IP: NF-YA, GATA-2, GATA-1 and BCL-XL expressed with different tags from plasmids separately transfected into K562 cells; pulled down by antibodies to the tags; associated proteins detected by Western blot.
Assay [2] concerns the target tagged NF-YA expressed from a plasmid transfected into K562 cells (UniProt P23511). The description is as above.
Assay [3] has as its target tagged GATA-1 expressed from a plasmid transfected into K562 cells (UniProt P15976). The assay is described as above.
Assay [4] addresses tagged BCL11A-XL expressed from a plasmid transfected into K562 cells (UniProt Q9H165). Described as above.
The target of assay [5] is tagged BCL11A isolated from transfected cells for the in vitro co-IP (UniProt Q9H165). Nature of the assay: co-IP; in vitro co-IP of individual pairs of differently tagged proteins expressed in and isolated from K562 and/or 293 cells; both purified.

B1: COUP-TFII of K562 cells (protein, UniProt P24468 1-414)
chain: MAMVVSTWRDPQDEVPGSQGSQASQAPPVPGPPPGAPHTPQTPGQGGPASTPAQTAAGGQGGPGGPGSDKQQQQQHIECVVCGDKSSGKHYGQFTCEGCKSFFKRSVRRNLSYTCRANRNCPIDQHHRNQCQYCRLKKCLKVGMRREAVQRGRMPPTQPTHGQFALTNGDPLNCHSYLSGYISLLLRAEPYPTSRFGSQCMQPNNIMGIENICELAARMLFSAVEWARNIPFFPDLQITDQVALLRLTWSELFVLNAAQCSMPLHVAPLLAAAGLHASPMSADRVVAFMDHIRIFQEQVEKLKALHVDSAEYSCLKAIVLFTSDACGLSDVAHVESLQEKSQCALEEYVRSQYPNQPTRFGKLLLRLPSLRTVSSSVIEQLFFVRLVGKTPIETLIRDMLLSGSSFNWPYMAIQ
As for B1, the binding entry is on record as “no binding” in assay [1], “no binding” in assay [2], “no binding” in assay [3] and “binds” in assay [4].

B2: tagged COUP-TFII isolated from transfected cells for the in vitro co-IP (protein, UniProt P24468 1-414)
chain: B1 chain
As for B2, the binding entry in assay [5] is “binds”.

B3: NF-YB of K562 cells (protein, UniProt P25208 1-207)
chain: MTMDGDSSTTDASQLGISADYIGGSHYVIQPHDDTEDSMNDHEDTNGSKESFREQDIYLPIANVARIMKNAIPQTGKIAKDAKECVQECVSEFISFITSEASERCHQEKRKTINGEDILFAMSTLGFDSYVEPLKLYLQKFREAMKGEKGIGGAVTATDGLSEELTEEAFTNQLPAGLITTDGQQQNVMVYTTSYQQISGVQQIQFS
As to B3, the binding result in assay [4] is listed as “binds”.

B4: tagged NF-YB isolated from transfected cells for the in vitro co-IP (protein, UniProt P25208 1-207)
chain: B3 chain
Turning to B4, the binding result in assay [5] is recorded as “binds”.
